# The other results are listed elsewhere or left out.
# Key:
# Assay in all cases: glycan array binding signal (z-score within array); higher = stronger binding
# Conditions in all cases: glycan notation: IUPAC condensed, linker removed
# [1] = biological target: Neu5Ac(a2-3)[Neu5Ac(a2-6)]GalNAc
# In short: (§1)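 Glycan array binding is given as a within-array Z-score, which can be read as non-binding when negative. The arrays, 3228 of them, came from the Consortium for Functional Glycomics database and were retained only where the protein sequence was available. Z-scores were averaged across arrays of the same protein sequence at different concentrations or buffers and across linkers.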
# Neu5Ac(a2-6)Gal = biological target: Neu5Ac(a2-6)Gal
# In short: as §1
# [2] = biological target: Neu5Ac(a2-6)Gal(b1-3)GlcNAc(b1-3)[Gal(b1-4)GlcNAc(b1-6)]Gal(b1-4)Glc
# In short: as §1
# Neu5Ac(a2-6)Gal(b1-4)Glc = biological target: Neu5Ac(a2-6)Gal(b1-4)Glc
# In short: as §1
# [3] = biological target: Neu5Ac(a2-6)Gal(b1-4)GlcNAc
# In short: as §1
# [4] = biological target: Neu5Ac(a2-6)Gal(b1-4)GlcNAc(b1-2)Man
# In short: as §1
# [5] = biological target: Neu5Ac(a2-6)Gal(b1-4)GlcNAc(b1-2)Man(a1-3)Man(b1-4)GlcNAc(b1-4)GlcNAc
# In short: as §1
# [6] = biological target: Neu5Ac(a2-6)Gal(b1-4)GlcNAc(b1-2)Man(a1-3)[Gal(b1-4)GlcNAc(b1-2)Man(a1-6)]Man(b1-4)GlcNAc(b1-4)GlcNAc
# In short: as §1
# [7] = biological target: Neu5Ac(a2-6)Gal(b1-4)GlcNAc(b1-2)Man(a1-3)[GlcNAc(b1-2)Man(a1-6)]Man(b1-4)GlcNAc(b1-4)GlcNAc
# In short: as §1
# [8] = biological target: Neu5Ac(a2-6)Gal(b1-4)GlcNAc(b1-2)Man(a1-3)[GlcNAc(b1-4)][Neu5Ac(a2-6)Gal(b1-4)GlcNAc(b1-2)Man(a1-6)]Man(b1-4)GlcNAc(b1-4)GlcNAc
# In short: as §1
# [9] = biological target: Neu5Ac(a2-6)Gal(b1-4)GlcNAc(b1-2)Man(a1-3)[Man(a1-6)]Man(b1-4)GlcNAc(b1-4)GlcNAc
# In short: as §1
# [10] = biological target: Neu5Ac(a2-6)Gal(b1-4)GlcNAc(b1-2)Man(a1-3)[Neu5Ac(a2-3)Gal(b1-4)GlcNAc(b1-2)Man(a1-6)]Man(b1-4)GlcNAc(b1-4)GlcNAc
# In short: as §1
# [11] = biological target: Neu5Ac(a2-6)Gal(b1-4)GlcNAc(b1-2)Man(a1-3)[Neu5Ac(a2-6)Gal(b1-4)GlcNAc(b1-2)Man(a1-6)]Man(b1-4)GlcNAc(b1-4)GlcNAc
# In short: as §1
# [12] = biological target: Neu5Ac(a2-6)Gal(b1-4)GlcNAc(b1-2)Man(a1-3)[Neu5Ac(a2-6)Gal(b1-4)GlcNAc(b1-2)Man(a1-6)]Man(b1-4)GlcNAc(b1-4)[Fuc(a1-6)]GlcNAc
# In short: as §1
# [13] = biological target: Neu5Ac(a2-6)Gal(b1-4)GlcNAc(b1-2)Man(a1-6)Man(b1-4)GlcNAc(b1-4)GlcNAc
# In short: as §1
# [14] = biological target: Neu5Ac(a2-6)Gal(b1-4)GlcNAc(b1-2)Man(a1-6)[Gal(b1-4)GlcNAc(b1-2)Man(a1-3)]Man(b1-4)GlcNAc(b1-4)GlcNAc
# In short: as §1
# [15] = biological target: Neu5Ac(a2-6)Gal(b1-4)GlcNAc(b1-2)Man(a1-6)[GlcNAc(b1-2)Man(a1-3)]Man(b1-4)GlcNAc(b1-4)GlcNAc
# In short: as §1
# [16] = biological target: Neu5Ac(a2-6)Gal(b1-4)GlcNAc(b1-2)Man(a1-6)[Man(a1-3)]Man(b1-4)GlcNAc(b1-4)GlcNAc
# In short: as §1
# [17] = biological target: Neu5Ac(a2-6)Gal(b1-4)GlcNAc(b1-2)[Neu5Ac(a2-6)Gal(b1-4)GlcNAc(b1-4)]Man(a1-3)[GlcNAc(b1-4)][Neu5Ac(a2-6)Gal(b1-4)GlcNAc(b1-2)[Neu5Ac(a2-6)Gal(b1-4)GlcNAc(b1-6)]Man(a1-6)]Man(b1-4)GlcNAc(b1-4)GlcNAc
# In short: as §1
# [18] = biological target: Neu5Ac(a2-6)Gal(b1-4)GlcNAc(b1-2)[Neu5Ac(a2-6)Gal(b1-4)GlcNAc(b1-4)]Man(a1-3)[GlcNAc(b1-4)][Neu5Ac(a2-6)Gal(b1-4)GlcNAc(b1-4)Man(a1-6)]Man(b1-4)GlcNAc(b1-4)GlcNAc
# In short: as §1
# [19] = biological target: Neu5Ac(a2-6)Gal(b1-4)GlcNAc(b1-2)[Neu5Ac(a2-6)Gal(b1-4)GlcNAc(b1-6)]Man(a1-6)[Neu5Ac(a2-6)Gal(b1-4)GlcNAc(b1-2)Man(a1-3)][GlcNAc(b1-4)]Man(b1-4)GlcNAc(b1-4)GlcNAc
# In short: as §1
# [20] = biological target: Neu5Ac(a2-6)Gal(b1-4)GlcNAc(b1-3)Gal(b1-3)GlcNAc
# In short: as §1
# [21] = biological target: Neu5Ac(a2-6)Gal(b1-4)GlcNAc(b1-3)Gal(b1-4)GlcNAc
# In short: as §1
# [22] = biological target: Neu5Ac(a2-6)Gal(b1-4)GlcNAc(b1-3)Gal(b1-4)GlcNAc(b1-2)Man(a1-3)[Neu5Ac(a2-6)Gal(b1-4)GlcNAc(b1-3)Gal(b1-4)GlcNAc(b1-2)Man(a1-6)]GalNAc
# In short: as §1
# [23] = biological target: Neu5Ac(a2-6)Gal(b1-4)GlcNAc(b1-3)Gal(b1-4)GlcNAc(b1-3)Gal(b1-4)GlcNAc
# In short: as §1
# [24] = biological target: Neu5Ac(a2-6)Gal(b1-4)GlcNAc(b1-3)Gal(b1-4)GlcNAc(b1-3)Gal(b1-4)GlcNAc(b1-2)Man(a1-3)[Neu5Ac(a2-6)Gal(b1-4)GlcNAc(b1-3)Gal(b1-4)GlcNAc(b1-3)Gal(b1-4)GlcNAc(b1-2)Man(a1-6)]GalNAc
# In short: as §1
# [25] = biological target: Neu5Ac(a2-6)Gal(b1-4)GlcNAc(b1-3)Gal(b1-4)GlcNAc(b1-3)GalNAc
# In short: as §1
# [26] = biological target: Neu5Ac(a2-6)Gal(b1-4)GlcNAc(b1-3)Gal(b1-4)GlcNAc(b1-3)[Neu5Ac(a2-6)Gal(b1-4)GlcNAc(b1-3)Gal(b1-4)GlcNAc(b1-6)]GalNAc
# In short: as §1
# [27] = biological target: Neu5Ac(a2-6)Gal(b1-4)GlcNAc(b1-3)Gal(b1-4)GlcNAc(b1-6)[Gal(b1-3)]GalNAc
# In short: as §1
# [28] = biological target: Neu5Ac(a2-6)Gal(b1-4)GlcNAc(b1-3)Gal(b1-4)[Fuc(a1-3)]GlcNAc(b1-3)Gal(b1-4)[Fuc(a1-3)]GlcNAc
# In short: as §1
# [29] = biological target: Neu5Ac(a2-6)Gal(b1-4)GlcNAc(b1-3)GalNAc
# In short: as §1
# [30] = biological target: Neu5Ac(a2-6)Gal(b1-4)GlcNAc(b1-3)[Neu5Ac(a2-6)Gal(b1-4)GlcNAc(b1-6)]GalNAc
# In short: as §1
# [31] = biological target: Neu5Ac(a2-6)Gal(b1-4)GlcNAc(b1-6)GalNAc
# In short: as §1
# [32] = biological target: Neu5Ac(a2-6)Gal(b1-4)GlcNAc(b1-6)[Gal(b1-3)GlcNAc(b1-3)]Gal(b1-4)Glc
# In short: as §1
# [33] = biological target: Neu5Ac(a2-6)Gal(b1-4)GlcNAc(b1-6)[Gal(b1-3)]GalNAc
# In short: as §1
# [34] = biological target: Neu5Ac(a2-6)Gal(b1-4)GlcNAc6S
# In short: as §1
# Neu5Ac(a2-6)GalNAc = biological target: Neu5Ac(a2-6)GalNAc
# In short: as §1
# [35] = biological target: Neu5Ac(a2-6)GalNAc(b1-4)GlcNAc
# In short: as §1
binder,measurement,setting,value
"Epa7 (Candida glabrata), Q6DTM6_CANGB (protein) MGSSHHHHHHSSGLVPRGSHMKDDYSSFLSNNNLGWTDPTEFPLGCSPNVTTPKNGLSMELYSYDLRKNGSYPCWDAAYLDPNYPRTGYKSHRLLAKVDGVTGNINFYYHATKGCTPEIDHLPASYNYPKPLTMTNFTMLLYGYFKPKVTGYHTFTISADDLLFVNFGAGNAFDCCKRESSADDFGNYQAYAVWGSQTAKDDLTVHLDAGLYYPIRIFFNNREYDAELSLTLKTESDSNPVIDFSDYFYSFDDTKDGCPGLVSYDTS",glycan array binding signal (z-score),[1],-0.261
same,glycan array binding signal (z-score),Neu5Ac(a2-6)Gal,-0.228
same,glycan array binding signal (z-score),[2],-0.076
same,glycan array binding signal (z-score),Neu5Ac(a2-6)Gal(b1-4)Glc,-0.223
same,glycan array binding signal (z-score),[3],-0.259
same,glycan array binding signal (z-score),[4],-0.24
same,glycan array binding signal (z-score),[5],-0.24
same,glycan array binding signal (z-score),[6],-0.228
same,glycan array binding signal (z-score),[7],-0.214
same,glycan array binding signal (z-score),[8],-0.231
same,glycan array binding signal (z-score),[9],-0.226
same,glycan array binding signal (z-score),[10],-0.231
same,glycan array binding signal (z-score),[11],-0.237
same,glycan array binding signal (z-score),[12],-0.235
same,glycan array binding signal (z-score),[13],-0.243
same,glycan array binding signal (z-score),[14],-0.22
same,glycan array binding signal (z-score),[15],-0.227
same,glycan array binding signal (z-score),[16],-0.239
same,glycan array binding signal (z-score),[17],-0.234
same,glycan array binding signal (z-score),[18],-0.239
same,glycan array binding signal (z-score),[19],-0.233
same,glycan array binding signal (z-score),[20],-0.227
same,glycan array binding signal (z-score),[21],-0.258
same,glycan array binding signal (z-score),[22],-0.215
same,glycan array binding signal (z-score),[23],-0.228
same,glycan array binding signal (z-score),[24],-0.217
same,glycan array binding signal (z-score),[25],-0.228
same,glycan array binding signal (z-score),[26],-0.224
same,glycan array binding signal (z-score),[27],1.02
same,glycan array binding signal (z-score),[28],-0.17
same,glycan array binding signal (z-score),[29],-0.013
same,glycan array binding signal (z-score),[30],-0.196
same,glycan array binding signal (z-score),[31],-0.217
same,glycan array binding signal (z-score),[32],-0.178
same,glycan array binding signal (z-score),[33],1.19
same,glycan array binding signal (z-score),[34],-0.257
same,glycan array binding signal (z-score),Neu5Ac(a2-6)GalNAc,-0.264
same,glycan array binding signal (z-score),[35],-0.259
